Experimental data reported in the supplement of paper PMC9588766.
Structures can show the parent of a compound that is named as a salt. The full ranking holds about 1,900 compounds; the median of “cell viability of compound + 1 nM pemigatinib relative to pemigatinib-only (DMSO) wells” is about 0.95, and the lowest 2% start at about 0.22. The list shows a part of the results.

Tested on: PDC-DUC18828
Assay: cell viability of compound + 1 nM pemigatinib relative to pemigatinib-only (DMSO) wells (fraction); PDC-DUC18828 is a patient-derived cholangiocarcinoma cell line; higher = less growth inhibition
Conditions: first compound 1 µM; pemigatinib concentration 1 nM; 72 h
Experimental: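 Selleck Bioactive library screen in the patient-derived FGFR2 fusion-positive ICC cell line PDC-DUC18828 (500 cells/well). Each compound was tested at 1 uM with 1 nM pemigatinib, in triplicate, for 72 h. Viability was read by CellTiter-Glo and normalised to plate DMSO controls. Value is the paper's averaged normalised viability.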

Question: For `CCCc1nc2c(C)cc(-c3nc4ccccc4n3C)cc2n1Cc1ccc(-c2ccccc2C(=O)O)cc1` [Telmisartan] + CCN1C(=O)N(c2c(F)c(OC)cc(OC)c2F)Cc2cnc3[nH]c(CN4CCOCC4)cc3c21 [pemigatinib], which cell viability is on record?
Answer: 1.02

Question: Which cell viability does the source give for `CCCCC1C(=O)N(c2ccccc2)N(c2ccccc2)C1=O` [Phenylbutazone] + CCN1C(=O)N(c2c(F)c(OC)cc(OC)c2F)Cc2cnc3[nH]c(CN4CCOCC4)cc3c21 [pemigatinib] here?
Answer: 0.972

Question: `Nc1ncnc2c1nc(Br)n2[C@@H]1O[C@@H]2COP(=O)(O)O[C@H]2[C@H]1O` [8-Bromo-cAMP] + CCN1C(=O)N(c2c(F)c(OC)cc(OC)c2F)Cc2cnc3[nH]c(CN4CCOCC4)cc3c21 [pemigatinib] was tested. Which cell viability did it give?
Answer: 1.01

Question: With `COc1cc2ncnc(Nc3ccc(F)c(Cl)c3)c2cc1NC(=O)/C=C/CN1CCCCC1` + CCN1C(=O)N(c2c(F)c(OC)cc(OC)c2F)Cc2cnc3[nH]c(CN4CCOCC4)cc3c21 [pemigatinib] as the compound, how does the cell viability read?
Answer: 0.91

Question: `NC(=O)Nc1sc(-c2ccc(F)cc2)cc1C(N)=O` + CCN1C(=O)N(c2c(F)c(OC)cc(OC)c2F)Cc2cnc3[nH]c(CN4CCOCC4)cc3c21 [pemigatinib] was tested. Which cell viability did it give?
Answer: 0.85

Question: For `CC(C)(C)OC(=O)N[C@H]1CCCCC/C=C\[C@@H]2C[C@@]2(C(=O)NS(=O)(=O)C2CC2)NC(=O)[C@@H]2C[C@@H](OC(=O)N3Cc4cccc(F)c4C3)CN2C1=O` [Danoprevir (ITMN-191)] + CCN1C(=O)N(c2c(F)c(OC)cc(OC)c2F)Cc2cnc3[nH]c(CN4CCOCC4)cc3c21 [pemigatinib], which cell viability is on record?
Answer: 1.06

Question: For `N=C(N)c1ccc(N=NNc2ccc(C(=N)N)cc2)cc1` [Diminazene Aceturate] + CCN1C(=O)N(c2c(F)c(OC)cc(OC)c2F)Cc2cnc3[nH]c(CN4CCOCC4)cc3c21 [pemigatinib], which cell viability is on record?
Answer: 0.895

Question: Which cell viability does the source give for `C[C@H](CCC(=O)O)[C@H]1CC[C@H]2[C@@H]3C[C@H](O)[C@@H]4C[C@H](O)CC[C@]4(C)[C@H]3CC[C@]12C` [Hyodeoxycholic acid (HDCA)] + CCN1C(=O)N(c2c(F)c(OC)cc(OC)c2F)Cc2cnc3[nH]c(CN4CCOCC4)cc3c21 [pemigatinib] here?
Answer: 0.973

Question: How did the cell viability turn out when `CN1[C@@H]2CC[C@H]1C[C@@H](OC(c1ccccc1)c1ccccc1)C2` [Benztropine mesylate] + CCN1C(=O)N(c2c(F)c(OC)cc(OC)c2F)Cc2cnc3[nH]c(CN4CCOCC4)cc3c21 [pemigatinib] was run?
Answer: 0.887

Question: Which cell viability does the source give for `Cc1nn(C)c(COc2ccc(N3CCN(S(=O)(=O)N(C)C)CC3)cc2)c1-c1cccc2c(CCCOc3cccc4ccccc34)c(C(=O)O)n(CCN3CCOCC3)c12` + CCN1C(=O)N(c2c(F)c(OC)cc(OC)c2F)Cc2cnc3[nH]c(CN4CCOCC4)cc3c21 [pemigatinib] here?
Answer: 0.984

Question: For `CCCC(=O)Nc1ccc(OCC(O)CNC(C)C)c(C(C)=O)c1` (stereo unspecified) [Acebutolol HCl] + CCN1C(=O)N(c2c(F)c(OC)cc(OC)c2F)Cc2cnc3[nH]c(CN4CCOCC4)cc3c21 [pemigatinib], which cell viability is on record?
Answer: 0.931

Question: For `C[C@@H]1O[C@@H](OC[C@H]2O[C@@H](Oc3c(-c4ccc(O)c(O)c4)oc4cc(O)cc(O)c4c3=O)[C@H](O)[C@@H](O)[C@@H]2O)[C@H](O)[C@H](O)[C@H]1O` [Rutin] + CCN1C(=O)N(c2c(F)c(OC)cc(OC)c2F)Cc2cnc3[nH]c(CN4CCOCC4)cc3c21 [pemigatinib], which cell viability is on record?
Answer: 1.02

Question: How did the cell viability turn out when `Nc1nccc2c1ncn2C1C=C(CO)C(O)C1O` (stereo unspecified) [3-Deazaneplanocin A (DZNeP)] + CCN1C(=O)N(c2c(F)c(OC)cc(OC)c2F)Cc2cnc3[nH]c(CN4CCOCC4)cc3c21 [pemigatinib] was run?
Answer: 0.668

Question: `Cc1nc(N(C)C(=O)Cc2ccc(-c3ccccn3)cc2)sc1S(N)(=O)=O` [Pritelivir (BAY 57-1293)] + CCN1C(=O)N(c2c(F)c(OC)cc(OC)c2F)Cc2cnc3[nH]c(CN4CCOCC4)cc3c21 [pemigatinib] was tested. Which cell viability did it give?
Answer: 0.907

Question: Which cell viability does the source give for `Cn1cc(/C=C/C(=O)c2cccc(F)c2)cc1/C=C/C(=O)NO` + CCN1C(=O)N(c2c(F)c(OC)cc(OC)c2F)Cc2cnc3[nH]c(CN4CCOCC4)cc3c21 [pemigatinib] here?
Answer: 1.03

Question: With `C/C(O)=C(\C#N)C(=O)Nc1ccc(C(F)(F)F)cc1` [Teriflunomide] + CCN1C(=O)N(c2c(F)c(OC)cc(OC)c2F)Cc2cnc3[nH]c(CN4CCOCC4)cc3c21 [pemigatinib] as the compound, how does the cell viability read?
Answer: 0.943

Question: Which cell viability does the source give for `COc1nc(C)cnc1NS(=O)(=O)c1cccnc1-c1ccc(-c2nnco2)cc1` [Zibotentan (ZD4054)] + CCN1C(=O)N(c2c(F)c(OC)cc(OC)c2F)Cc2cnc3[nH]c(CN4CCOCC4)cc3c21 [pemigatinib] here?
Answer: 1.05

Question: For `C[C@@H]1O[C@@H](O[C@H]2[C@H](Oc3cc(O)c4c(c3)O[C@H](c3ccc(O)cc3)CC4=O)O[C@H](CO)[C@@H](O)[C@@H]2O)[C@H](O)[C@H](O)[C@H]1O` [Naringin] + CCN1C(=O)N(c2c(F)c(OC)cc(OC)c2F)Cc2cnc3[nH]c(CN4CCOCC4)cc3c21 [pemigatinib], which cell viability is on record?
Answer: 0.934

Question: With `N[C@@H](CC(=O)N1CCn2c(nnc2C(F)(F)F)C1)Cc1cc(F)c(F)cc1F` [Sitagliptin phosphate monohydrate] + CCN1C(=O)N(c2c(F)c(OC)cc(OC)c2F)Cc2cnc3[nH]c(CN4CCOCC4)cc3c21 [pemigatinib] as the compound, how does the cell viability read?
Answer: 0.891

Question: `C[C@H]1COC2(CCN(c3nc(=O)c4cc(C(F)(F)F)cc([N+](=O)[O-])c4s3)CC2)O1` (racemic) [BTZ043 Racemate] + CCN1C(=O)N(c2c(F)c(OC)cc(OC)c2F)Cc2cnc3[nH]c(CN4CCOCC4)cc3c21 [pemigatinib] was tested. Which cell viability did it give?
Answer: 0.983

Question: `Oc1ccc(Cc2nc3c(Cc4ccccc4)nc(-c4ccc(O)cc4)cn3c2O)cc1` [Coelenterazine] + CCN1C(=O)N(c2c(F)c(OC)cc(OC)c2F)Cc2cnc3[nH]c(CN4CCOCC4)cc3c21 [pemigatinib] was tested. Which cell viability did it give?
Answer: 0.872

Question: `CC1(C)CC(=O)c2c(C(F)(F)F)nn(-c3ccc(C(N)=O)c(N[C@H]4CC[C@H](OC(=O)CN)CC4)c3)c2C1` + CCN1C(=O)N(c2c(F)c(OC)cc(OC)c2F)Cc2cnc3[nH]c(CN4CCOCC4)cc3c21 [pemigatinib] was tested. Which cell viability did it give?
Answer: 0.31

Question: How did the cell viability turn out when `CC1(C)[C@@H](O)CC[C@]2(C)[C@H]3C(=O)C=C4[C@@H]5C[C@@](C)(C(=O)O)CC[C@]5(C)CC[C@@]4(C)[C@]3(C)CC[C@@H]12` [Enoxolone] + CCN1C(=O)N(c2c(F)c(OC)cc(OC)c2F)Cc2cnc3[nH]c(CN4CCOCC4)cc3c21 [pemigatinib] was run?
Answer: 0.937

Question: For `COCCOC(=O)C1=C(C)NC(C)=C(C(=O)OC(C)C)C1c1cccc([N+](=O)[O-])c1` (stereo unspecified) [Nimodipine] + CCN1C(=O)N(c2c(F)c(OC)cc(OC)c2F)Cc2cnc3[nH]c(CN4CCOCC4)cc3c21 [pemigatinib], which cell viability is on record?
Answer: 0.984

Question: For `NCCS` [Cysteamine HCl] + CCN1C(=O)N(c2c(F)c(OC)cc(OC)c2F)Cc2cnc3[nH]c(CN4CCOCC4)cc3c21 [pemigatinib], which cell viability is on record?
Answer: 1.02

Question: For `CN1C(C(=O)Nc2ccccn2)=C(O)c2ccccc2S1(=O)=O` [Piroxicam] + CCN1C(=O)N(c2c(F)c(OC)cc(OC)c2F)Cc2cnc3[nH]c(CN4CCOCC4)cc3c21 [pemigatinib], which cell viability is on record?
Answer: 1.08

Question: Which cell viability does the source give for `COc1c(C)c2c(c(O)c1C/C=C(\C)CCC(=O)OCCN1CCOCC1)C(=O)OC2` [Mycophenolate Mofetil] + CCN1C(=O)N(c2c(F)c(OC)cc(OC)c2F)Cc2cnc3[nH]c(CN4CCOCC4)cc3c21 [pemigatinib] here?
Answer: 0.546

Question: Which cell viability does the source give for `O=C(NCc1cccc(O)c1)Nc1nc(-c2ccncc2)cs1` + CCN1C(=O)N(c2c(F)c(OC)cc(OC)c2F)Cc2cnc3[nH]c(CN4CCOCC4)cc3c21 [pemigatinib] here?
Answer: 0.912

Question: Which cell viability does the source give for `COC(=O)CCc1ccc(OCC(O)CNC(C)C)cc1` (stereo unspecified) [Esmolol HCl] + CCN1C(=O)N(c2c(F)c(OC)cc(OC)c2F)Cc2cnc3[nH]c(CN4CCOCC4)cc3c21 [pemigatinib] here?
Answer: 0.933

Question: For `O=C(O)c1ccc(-n2nc(-c3ccccc3O)nc2-c2ccccc2O)cc1` [Deferasirox] + CCN1C(=O)N(c2c(F)c(OC)cc(OC)c2F)Cc2cnc3[nH]c(CN4CCOCC4)cc3c21 [pemigatinib], which cell viability is on record?
Answer: 0.931

Question: For `Cc1ccc(Sc2ccccc2N2CCNCC2)c(C)c1` + CCN1C(=O)N(c2c(F)c(OC)cc(OC)c2F)Cc2cnc3[nH]c(CN4CCOCC4)cc3c21 [pemigatinib], which cell viability is on record?
Answer: 0.905

Question: For `C[C@H](NC(=O)CCc1nc2ccccc2c(=O)[nH]1)c1ccccc1` + CCN1C(=O)N(c2c(F)c(OC)cc(OC)c2F)Cc2cnc3[nH]c(CN4CCOCC4)cc3c21 [pemigatinib], which cell viability is on record?
Answer: 0.971

Question: Which cell viability does the source give for `NCC(=O)CCC(=O)O` [5-Aminolevulinic acid HCl] + CCN1C(=O)N(c2c(F)c(OC)cc(OC)c2F)Cc2cnc3[nH]c(CN4CCOCC4)cc3c21 [pemigatinib] here?
Answer: 0.909

Question: `CN1CCC(CNc2ccc3ncc(-c4cccc(OC(F)(F)F)c4)n3n2)CC1` [SGI-1776 free base] + CCN1C(=O)N(c2c(F)c(OC)cc(OC)c2F)Cc2cnc3[nH]c(CN4CCOCC4)cc3c21 [pemigatinib] was tested. Which cell viability did it give?
Answer: 0.886

Question: `O=C(CCCN1CCC(O)(c2ccc(Cl)cc2)CC1)c1ccc(F)cc1` [Haloperidol] + CCN1C(=O)N(c2c(F)c(OC)cc(OC)c2F)Cc2cnc3[nH]c(CN4CCOCC4)cc3c21 [pemigatinib] was tested. Which cell viability did it give?
Answer: 0.994

Question: `COc1cc2c(cc1OC)[C@@H]1Cc3ccc(OC)c(OC)c3CN1CC2` [Rotundine] + CCN1C(=O)N(c2c(F)c(OC)cc(OC)c2F)Cc2cnc3[nH]c(CN4CCOCC4)cc3c21 [pemigatinib] was tested. Which cell viability did it give?
Answer: 0.866
